# Among all 43,000 compounds or so, about 200 (0.47%) were called active. Not shown: some 12% with an inconclusive outcome. The call rests on the fitted dose curve; in most records, active means well fitted cell-killing curve with a large enough effect; inconclusive means small, poorly fitted or top-dose-only effect, or effect the other way; inactive means flat fitted curve, though single readings scatter. Some of the results follow.
# Test: Cell viability qHTS assay in S16 Pmp22-F2sN cells; further: nearly all actives have a fitted effect of over 65% in size
# Settings: S16 Pmp22-F2sN Schwann cells (luciferase reporters placed in the Pmp22 gene) viability, CellTiter-Glo, 24 h; series mostly up to 57.5 µM; activity change, negative = cytotoxicity: at the top concentration
# Outline: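 Luminescence from CellTiter-Glo, read by CCD camera after a 15 min room-temperature incubation, served as the viability signal. Reporter Schwann cells (S16 Pmp22-F2sN) had been treated with pin-transferred compounds for 24 h at 37C.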
# On the % scale 0 is the no-effect control and ±100 the full control effect.
row,Compound,"activity change, negative = cytotoxicity"
1,CCN(CC)CCNC(=O)c1ccc2c(c1)NC(=O)C(CS(=O)(=O)Cc1ccc(F)cc1Cl)N2 (configuration not stated),inactive: 13.7%
2,COc1ccc(C(=O)c2oc3ccccc3c2NC(=O)COc2cccc(C)c2)cc1,inactive: 11.4%
3,COc1ccc(-c2ccc3c(N)c(C(=O)Nc4ccc(C)cc4C)sc3n2)cc1OC,inactive: -18.6%
4,COc1ccc(S(=O)(=O)NCC(c2ccco2)N2CCN(c3ccccc3F)CC2)cc1OC (configuration not stated),inactive: -4.68%
5,CC(C)c1nc2ccc(C(=O)NCc3ccc(F)cc3)cc2o1,inactive: 11.7%
6,Cn1c2c(c(=O)n(C)c1=O)C(c1cc(Br)ccc1F)CC(=O)N2 (configuration not stated),inactive: 0.0344%
7,CCc1ccccc1NS(=O)(=O)c1ccc(-c2coc(C)n2)cc1,inactive: -26.1%
8,Cc1oc2ncnc(N3CCCCC3)c2c1C(=O)Nc1cccc(Cl)c1C,inactive: -1.58%
9,Cc1ccc2[nH]c(CSc3nnc(NC(=O)COc4ccccc4C)s3)cc(=O)c2c1,inactive: -22.8%
10,COc1ccc(Nc2cc(C(=O)NCCCN(C)c3ccccc3)c3ccccc3n2)c(OC)c1,inactive: -0.446%
11,COc1ccc(NC(=O)CC2C(=O)N(c3ccc(OC)cc3)C(=O)N2C2CCCCC2)cc1 (configuration not stated),inactive: -2.01%
12,Cc1ccc(Nc2cc(=O)[nH]c(=O)[nH]2)cc1C,inactive: -0.493%
13,COc1cccc(C(=O)N2CC(=O)Nc3ccc(C)cc3C2c2ccc(F)cc2)c1OC (configuration not stated),inactive: 2.05%
14,COc1ccc(OC)c(CNC(=O)CCc2c(C)nc3c(c2C)c(=O)n(C)c(=O)n3C)c1,inactive: 4.38%
15,Cc1ccc2oc(=O)c(-c3nc4ccc(C)cc4[nH]3)cc2c1,inactive: -8.44%
16,COc1ccc(Cl)cc1NC(=O)CSc1nnc(C)n2c1cc1sccc12,inactive: 8.66%
17,CCCOc1ccc(CNC(=O)C(C)n2nc(C)n3c(cc4occc43)c2=O)cc1 (configuration not stated),inactive: 8.66%
18,Cc1ccc(C(=O)N2c3ncnn3C3(CCCCC3)[C@@H]3CCCC[C@@H]32)cc1,inactive: -12.2%
19,CCC(C)NC(=O)Cn1c(=O)n(CCCC(=O)NCc2ccc(C)cc2)c(=O)c2ccccc21 (configuration not stated),inactive: 6.55%
20,Cc1cn2c(=O)cc(COc3cc(C)c(Cl)c(C)c3)nc2s1,inactive: -1.16%
21,CCOC(=O)C1CCN(c2cc3c(cc2NC(=O)c2ccc(OC)c(OC)c2)n(C)c(=O)n3C)CC1,inactive: 2.23%

row,Compound,"activity change, negative = cytotoxicity"
1,CC1CCCCN1S(=O)(=O)c1ccc(F)c(C(=O)Nc2ccccc2C(F)(F)F)c1 (configuration not stated),inactive: -10.2%
2,Cc1cc(Cl)ccc1NS(=O)(=O)c1ccc2c(c1)CCN2S(C)(=O)=O,inactive: -11.3%
3,Cc1cc(=O)n(Cc2cccc(Br)c2)c2c1c(C)nn2-c1ccccc1,inactive: 17.4%
4,Cc1cccc(CNC(=O)Cc2csc3ccccc23)c1,inactive: 6.72%
5,COc1ccc(S(=O)(=O)N2CCN(Cc3nc4ccc(C)cc4o3)CC2)cc1OC,inactive: 0.68%
6,CCOc1cc2sc(N3CCC(C(=O)Nc4ccc(C(C)C)cc4)CC3)nc2cc1Br,inactive: 0.0556%
7,COc1ccc(CCNC(=O)Cc2c(C)c3c(cc(C)c4c(C)c(C)oc43)oc2=O)cc1OC,inactive: 8.02%
8,CCOc1ccc(CNC(=O)CN2C(=O)CCn3nc(-c4cn(C)c5ccccc45)cc32)cc1OC,inactive: 16%
9,CCOc1ccc(NC(=O)CSc2cc(C)c3ccccc3n2)cc1,inactive: -3.69%
10,O=C(NCc1cccs1)c1nn(-c2ccccc2)nc1CO,inactive: 4.45%
11,Cc1c(C)n(Cc2ccc(F)cc2)c2ccc(C(=O)N3CCN(c4ccc(Cl)cc4)CC3)cc12,inactive: -10.9%
12,CC1(C(=O)NC2CCCCC2)Cc2ccccc2C(=O)N1Cc1ccc(Cl)cc1 (configuration not stated),inactive: 10.8%
13,CC(=O)Nc1nonc1-c1nnc(SCc2ccc(F)cc2Cl)n1C,inactive: -2.94%
14,Cc1cc(C)cc(NC(=O)c2sc3nc(-c4ccccc4)cn3c2C)c1,inactive: -15.6%
15,Cc1ccc(NC(=O)CN2Cc3ccccc3C2=O)c(C)c1,inactive: 3.91%
16,CCOC(=O)c1cccc(NC(=O)CCS(=O)(=O)c2ccc(Br)s2)c1,inactive: -0.0744%
17,CC(C)(C)OC(=O)N1CCC(c2c(C(=O)Nc3cccc(C(F)(F)F)c3)cnn2-c2ccc(F)cc2F)CC1,inactive: -11.6%
18,Cn1cnc2c(=O)oc3ccc(S(=O)(=O)N4CCN(c5ccccc5)CC4)cc3c21,inactive: -21.2%
19,CCN(CC)S(=O)(=O)c1ccc2c(c1)c(=O)c(C(=O)N(C)Cc1ccccc1)cn2C,inactive: 10.1%
20,Cc1cc(C)cc(NC(=O)CSc2nnc(COc3ccccc3Cl)o2)c1,inactive: 13.5%
21,Cc1ccc(C)c(NC(=O)CCCN2C(=O)COc3ccc(C)cc32)c1,inactive: -12%

row,Compound,"activity change, negative = cytotoxicity"
1,Cc1cc(OCC(=O)Nc2cnn(CCCC(=O)O)c2)ccc1Cl,inactive: 14.9%
2,O=C1CN(C(=O)c2ccc(Cl)cc2Cl)C(c2ccc(F)cc2)c2cc(F)ccc2N1 (configuration not stated),inactive: 3.09%
3,CCOC(=O)C1CCN(C(=O)CSc2n[nH]c(-c3ccccc3Cl)n2)CC1,inactive: 12%
4,CN(C)c1ccc(C(CNC(=O)Cc2ccc(Cl)cc2)N2CCOCC2)cc1 (configuration not stated),inactive: 12.4%
5,COc1ccc(C)cc1NC(=O)c1cc2c(s1)-c1ccccc1SC2,inactive: 0.656%
6,CCOC(=O)CC(NC(=O)Cn1nnc(-c2ccc(C(F)(F)F)cc2)n1)c1ccccc1Cl (configuration not stated),inactive: 3.95%
7,CC(=O)Nc1cc(C(=O)NCc2ccc(F)cc2)ccc1Sc1ccc(C)cc1,inactive: -8.04%
8,CC1CCN(S(=O)(=O)c2ccc3ncn(CC(=O)Nc4ccccc4C(F)(F)F)c(=O)c3c2)CC1,inactive: 0.07%
9,Cc1nn(-c2ccccc2)c(-n2cccc2)c1C(=O)NCc1ccccc1Cl,inactive: -25.3%
10,CCOc1ccc2c(c1)[C@@H]1C=CC[C@@H]1[C@H](c1ccccc1Cl)N2,inactive: -18.6%
11,Cc1ccc(CCNC(=O)CN2C(=O)COc3ccc(S(=O)(=O)N4CCCCC4)cc32)cc1,inactive: 14.5%
12,Cc1ccc(Nc2nnc(-c3ccc(C)c(S(=O)(=O)N4CCCCC4)c3)c3ccccc23)cc1,inactive: -4.22%
13,COc1ccc(OC)c(NCc2cccn2-c2nnc(N3CCC(C)CC3)s2)c1,inactive: -19.5%
14,Cc1ccc(CNC(C)c2ccccc2)s1 (configuration not stated),inactive: -2.37%
15,CN(C(=O)CSc1nc2ccccc2n1CC(=O)N(C)c1ccc(F)cc1)c1ccccc1,inactive: -2.38%
16,CCN(c1ccccc1)S(=O)(=O)c1ccc(F)c(C(=O)Nc2ccc(C)cc2)c1,inactive: -25.2%
17,Cc1nc(-c2cccc(F)c2)sc1CCNC(=O)c1ccc(F)c(F)c1,inactive: 4.33%
18,CCOc1ccc(Nc2oc(-c3ccc(COc4ccccc4C)o3)nc2C#N)cc1,inactive: -0.0845%
19,Cc1ccc(CNC(=O)CN2C(=O)C3(SCC(=O)N3c3cc(C)cc(C)c3)c3ccccc32)cc1 (configuration not stated),inactive: -19.5%
20,O=C(CSc1nccn1Cc1ccc(F)cc1)Nc1ccc2c(c1)OCO2,inactive: -17.8%
